# Measurements: the supplement of paper PMC12355420
# Where a name gives a salt, the structure may show the parent alone. Some of the results follow. Repeats are few or missing, and single values can be far off.
# System: HeLa VPS33A reporter cells
# Assay: relative cell viability (CellMask signal) vs DMSO (fraction of DMSO); HeLa model of a glycosaminoglycan (GAG) storage disease; KI is knock-in and KO knock-out; SDC1 is syndecan 1; higher = less cytotoxic
# Details: 50 µM; 24 h
# 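Further: primary screen of an FDA-approved drug library in HeLa reporter cells in 96-well format, CellMask signal normalized to DMSO-treated wells set as 1, under 0.5 deemed highly cytotoxic.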
row,SMILES,relative cell viability
1,C[C@@H]1CC[C@H]2[C@@H](C)C(=O)O[C@@H]3O[C@@]4(C)CC[C@@H]1[C@]32OO4 [Artemisinine],1.09
2,CCN(C)C(=O)Oc1cccc([C@H](C)N(C)C)c1 [Rivastigmine Tartrate],1.13
3,"NCC(O)c1ccc(O)cc1 (racemic) [(+,-)-Octopamine HCl]",1.02
4,O=C(O[C@H]1C[N+]2(CCCOc3ccccc3)CCC1CC2)C(O)(c1cccs1)c1cccs1 [Aclidinium Bromide],1.04
5,C[C@]12CCC(=O)C=C1C=C[C@@H]1[C@@H]2CC[C@@]2(C)[C@H]1CC[C@@]2(O)CCC(=O)O [Potassium Canrenoate],1.12
6,CC(NC(C)(C)C)C(=O)c1cccc(Cl)c1 (stereo not drawn) [Bupropion hydrochloride],1.03
7,O=P1(N(CCCl)CCCl)NCCCO1 (stereo not drawn) [Cyclophosphamide monohydrate],1.05
8,CC1C(=O)OC2C(O)C34C5OC(=O)C3(OC3OC(=O)C(O)C34C(C(C)(C)C)C5O)C12O (stereo not drawn) [Ginkgolide C],1.04
9,CN(C)Cc1c[nH]c2ccccc12 [Gramine],0.945
10,Cn1c(COP(=O)(NCCBr)NCCBr)cnc1[N+](=O)[O-],1.08
11,NCCCNCCSP(=O)(O)O [Amifostine],0.932
12,CN(C)C(=O)Oc1cccc([N+](C)(C)C)c1 [Neostigmine Bromide],1.08
13,CC(=O)O[C@H]1C[C@@H]2CC[C@@H]3[C@H](CC[C@@]4(C)[C@H]3C[C@H]([N+]3(C)CCCCC3)[C@@H]4OC(C)=O)[C@@]2(C)C[C@@H]1[N+]1(C)CCCCC1 [Pancuronium dibromide],1.05
14,CC(C)C[C@H]1C(=O)N2CCC[C@H]2[C@]2(O)O[C@](NC(=O)[C@@H]3C=C4c5cccc6[nH]c(Br)c(c56)C[C@H]4N(C)C3)(C(C)C)C(=O)N12 [Bromocriptine mesylate],1.17
15,Nc1ccncc1 [4-Aminopyridine],0.981
16,C[N+]1(C)CCCC(OC(=O)C(O)(c2ccccc2)c2ccccc2)C1 (stereo not drawn) [Mepenzolate Bromide],1.05
17,C=C1C[C@@H]2[C@H](CC[C@]3(C)C(=O)CC[C@@H]23)[C@@]2(C)C=CC(=O)C=C12 [Exemestane],1.19

row,SMILES,relative cell viability
1,CCOC(=O)c1cncn1[C@H](C)c1ccccc1 [Etomidate hydrochloride],1.17
2,C#C[C@]1(O)C=C[C@H]2[C@@H]3CCC4=CC(=O)CC[C@@H]4[C@H]3CC[C@@]21CC [Gestodene],1.02
3,CCOC(=O)Nc1ccc(NCc2ccc(F)cc2)cc1N [Retigabine dihydrochloride],0.934
4,C[C@H]1C(=O)O[C@@H]2CCN3CC=C(COC(=O)[C@](C)(O)[C@]1(C)O)[C@H]23 [Crotaline],0.962
5,COc1cc2c(cc1OC)C1CC(=O)C(CC(C)C)CN1CC2 (stereo not drawn) [Tetrabenazine],1.03
6,CN(C)[C@@H]1C(=O)C(C(N)=O)=C(O)[C@@]2(O)C(=O)C3=C(O)c4c(O)ccc(Cl)c4[C@@](C)(O)[C@H]3C[C@@H]12 [Chlortetracycline HCl],1
7,COC1=C[C@@H]2[C@@H]3Cc4ccc(OC)c(O)c4[C@]2(CCN3C)CC1=O [Sinomenine],1.07
8,COc1ccc(C=O)cc1 [p-Anisaldehyde],1.02
9,Cc1cc(O)ccc1Cl [Chlorocresol],1.03
10,"CN[C@H]1[C@H](O)[C@H](O[C@@H]2[C@@H](O)[C@H](O[C@H]3O[C@H](C(C)O)[C@@H](O)[C@H](O)[C@H]3N)[C@@H](N)C[C@H]2N)OC[C@@]1(C)O (stereo partly drawn) [Geneticin, G-418 Sulfate]",1.3
11,N.N.[Cl][Pt][Cl] [Cisplatin],1.3
12,CCCC[N+]1(C)[C@@H]2C[C@@H](OC(=O)[C@H](CO)c3ccccc3)C[C@H]1[C@@H]1O[C@@H]12 (stereo partly drawn) [Scopolamine butylbromide],0.867
13,Cc1ccccc1O [o-Cresol],1.01
14,COC(=O)C1=CCCN(C)C1 [Arecoline hydrobromide],1.04
15,CNC1CC(N)C(O)C(OC2OC(CO)C(O)C3OC4(OC(C(N)CO)C(O)C(O)C4O)OC23)C1O (stereo not drawn) [Hygromycin B],1.37
16,CCN1CC2(OC(=O)c3ccccc3NC(C)=O)CCC(OC)C34C1C(CC23)C1(O)CC(OC)C2CC4C1(O)C2OC (stereo not drawn) [Lannaconitine],0.86
